In the experiment the test system is MDA-MB-468 breast. Kind of experiment: DTP human tumour cell line panel, 48 h.

Results on one molecule are retold here after PubChem BioAssay (NCI).

Molecules are shown by their SMILES.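 Five compound concentrations were applied to cells in 96-well plates for 48 hours; endpoints were derived by simple linear interpolation of the resulting dose-response curve. Abbreviation: GI50, concentration required for 50% inhibition of growth.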 For part of its entries the source gives two or more results. The list is limited to them. An entry can have further records. A record mostly stands for its own series of concentrations, which the source does not state; some values may only mark the edge of a range.

The term GI50 denotes the concentration giving 50% growth inhibition. Lower therefore signals more potent growth inhibition. On to `CN(Cc1cnc2nc(N)nc(N)c2n1)c1ccc(C(=O)N[C@@H](CCC(=O)O)C(=O)O)cc1`, for which the GI50 is 29.1 nM and 633 nM.
